Data: the supplement of paper PMC8291772
± gives the standard error. The list shows a part of the results.

The sequences below were run against terminal deoxynucleotidyl transferase (calf thymus) (UniProt P06526) (assay: TdT poly-dT extension signal (Cy3 hybridisation fluorescence, uncapped minus capped) (fluorescence a.u.); higher = more efficient initiation of TdT extension). Settings: initiator chemistry: 2'-O-methyl-RNA, free 3'-OH (5'-tethered via HEG linker).
Outline: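 Mono- to pentamer initiators were made by photolithographic in situ synthesis on glass on a hexaethylene glycol linker, each as uncapped and DMTr-dT-capped replicates. Arrays were extended with 0.2 u/μL calf thymus TdT and 100 μM dTTP in TdT buffer plus 0.25 mM CoCl2 at 37 °C for 120 min, hybridized with Cy3-labelled rA18 probe at 4 °C and scanned at 532 nm. Extension signal is mean uncapped minus mean capped (background) fluorescence.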

UniProt P06526, sequence (P06526 whole entry): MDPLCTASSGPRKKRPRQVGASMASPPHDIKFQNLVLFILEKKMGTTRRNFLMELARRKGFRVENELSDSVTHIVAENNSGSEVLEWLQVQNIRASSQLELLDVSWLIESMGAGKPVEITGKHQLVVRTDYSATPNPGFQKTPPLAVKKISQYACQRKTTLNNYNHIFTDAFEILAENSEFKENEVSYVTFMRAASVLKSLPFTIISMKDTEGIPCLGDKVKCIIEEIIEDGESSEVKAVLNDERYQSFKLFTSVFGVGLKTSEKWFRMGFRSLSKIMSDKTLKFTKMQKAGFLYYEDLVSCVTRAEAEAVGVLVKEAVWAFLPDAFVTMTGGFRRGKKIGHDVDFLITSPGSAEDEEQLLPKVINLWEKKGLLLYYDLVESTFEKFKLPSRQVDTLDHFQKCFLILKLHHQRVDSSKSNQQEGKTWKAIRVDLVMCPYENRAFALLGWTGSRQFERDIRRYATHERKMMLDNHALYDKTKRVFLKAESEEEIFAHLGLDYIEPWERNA

Row | Sequence | TdT poly-dT extension signal
1 | ACGAA | 869 ± 62
2 | AGCGA | 556 ± 38
3 | UUAAU | 420 ± 35
4 | CACGC | 1090 ± 67
5 | ACUGU | 377 ± 18
6 | CCGCA | 451 ± 46
7 | CGUAU | 326 ± 32
8 | GGAUU | 273 ± 21
9 | GUUG | 156 ± 11
10 | GUAAU | 383 ± 30
11 | GGGA | 688 ± 52
12 | UAAUG | 230 ± 20
13 | GGUAU | 366 ± 40
14 | ACCC | 408 ± 21
15 | CAUU | 293 ± 19
16 | CAGGA | 655 ± 39
17 | GUGAU | 329 ± 28
18 | UGCAU | 392 ± 22
19 | UGGAG | 365 ± 53
20 | GUCGC | 1070 ± 67
21 | GAUCG | 205 ± 20
22 | GAUUG | 154 ± 14

Row | Sequence | TdT poly-dT extension signal
23 | UUAG | 222 ± 27
24 | UACCU | 308 ± 29
25 | ACUCA | 399 ± 32
26 | CCCCC | 425 ± 34
27 | AUAGG | 266 ± 22
28 | GGACG | 296 ± 31
29 | CGGGU | 522 ± 34
30 | CUAAU | 406 ± 31
31 | AACAC | 819 ± 56
32 | CUGGU | 412 ± 22
33 | AUGGG | 209 ± 17
34 | AGGC | 1000 ± 83
35 | UUGCU | 326 ± 35
36 | AUGUU | 232 ± 12
37 | CAAAC | 962 ± 130
38 | UCUUU | 210 ± 24
39 | UUUAU | 262 ± 11
40 | AUGC | 1000 ± 81
41 | UCCCG | 210 ± 13
42 | CUGC | 1000 ± 130
43 | AAGCC | 654 ± 48
44 | UUCAU | 442 ± 20

Row | Sequence | TdT poly-dT extension signal
45 | CUGUC | 440 ± 40
46 | CAGAG | 471 ± 47
47 | GAAAC | 1000 ± 140
48 | CCGAA | 952 ± 65
49 | AACGC | 975 ± 64
50 | GUCUU | 340 ± 34
51 | UAAAG | 531 ± 53
52 | CGUUC | 353 ± 30
53 | UACAG | 525 ± 27
54 | ACCCU | 321 ± 37
55 | CUCGG | 344 ± 47
56 | CCAAA | 1170 ± 64
57 | CCCU | 310 ± 33
58 | GUUAC | 497 ± 25
59 | AUGUC | 428 ± 44
60 | UAUAC | 496 ± 31
61 | GCAUC | 486 ± 41
62 | CGCUC | 570 ± 40
63 | CCCGC | 1200 ± 97
64 | AUUAA | 529 ± 25
65 | GUCUC | 589 ± 43
66 | GGAAC | 801 ± 70

Row | Sequence | TdT poly-dT extension signal
67 | UUACC | 287 ± 25
68 | ACGGU | 482 ± 34
69 | CGGGG | 299 ± 15
70 | CGAGA | 666 ± 57
71 | AGACA | 389 ± 38
72 | UCAAC | 698 ± 93
73 | CAUCA | 358 ± 63
74 | GUAGA | 712 ± 70
75 | GUUU | 214 ± 20
76 | CACGG | 422 ± 55
77 | CGGGC | 1070 ± 81
78 | GUACC | 398 ± 28
79 | AGGGG | 364 ± 40
80 | CCUGG | 221 ± 18
81 | GUGCA | 383 ± 27
82 | GCAGU | 516 ± 41
83 | GAGAA | 910 ± 76
84 | AAACU | 288 ± 30
85 | UUUUU | 482 ± 25
86 | GACCU | 325 ± 38
87 | GCAGG | 404 ± 44
88 | UGAC | 619 ± 92

Row | Sequence | TdT poly-dT extension signal
89 | ACCCC | 498 ± 27
90 | GACCC | 451 ± 37
91 | UGUAU | 273 ± 33
92 | AUACA | 316 ± 33
93 | CGCCU | 375 ± 17
94 | CAGCG | 334 ± 26
95 | UGCCA | 330 ± 31
96 | AUGGC | 1030 ± 83
97 | AGUUC | 403 ± 30
98 | GAGGC | 1040 ± 84
99 | AGGGA | 636 ± 49
100 | GGGUG | 356 ± 12
101 | AGUUA | 382 ± 20
102 | UUCGC | 1170 ± 79
103 | GUUAG | 258 ± 20
104 | UACCG | 248 ± 33
105 | UGUAA | 515 ± 38
106 | AGAC | 565 ± 55
107 | ACGAC | 610 ± 53
